Assay results reported in patent US11939397B2, “ENTPD2 antibodies, combination therapies, and methods of using the antibodies and combination therapies” (Novartis AG, priority 2018, dated 2024).

Key:
[1] = test system: human ENTPD2 engineered B16LM3 clone B5 tumor; assay: Human ENTPD2 engineered B16LM3 clone B5 xenograft model, combination with anti-PD-1 Ab; assay type: in vivo, C57BL/6 mice; conditions: for ΔT/ΔC value: Day 7
Description: This model was derived from the B16LM3 melanoma model, where endogenous mouse ENTPD2 expression was knocked out via a transient electroporation of CAS9 protein with CRISPR guide RNA sequences against mouse ENTPD2, and human ENTPD2 was overexpressed using a retroviral transduction approach.
Once tumors reached approximately 35-50 mm^3, mice were randomized according to tumor volume into treatment groups (n=8 per group). […] All doses were adjusted to individual mouse body weights.

mouse ENTPD2 = biological target: T1, mouse ENTPD2 (Mus musculus, UniProt O55026); assay: Antibody specificity: binding to mouse ENTPD2; conditions: SPR, mouse ENTPD2
T1 construct: residues 29-462 of mouse or rat ENTPD2 (the extracellular domain); mouse IgK signal peptide (N); made in house; host or cells: FreeStyle 293-F cells, transient
T1 sequence (O55026 29-462): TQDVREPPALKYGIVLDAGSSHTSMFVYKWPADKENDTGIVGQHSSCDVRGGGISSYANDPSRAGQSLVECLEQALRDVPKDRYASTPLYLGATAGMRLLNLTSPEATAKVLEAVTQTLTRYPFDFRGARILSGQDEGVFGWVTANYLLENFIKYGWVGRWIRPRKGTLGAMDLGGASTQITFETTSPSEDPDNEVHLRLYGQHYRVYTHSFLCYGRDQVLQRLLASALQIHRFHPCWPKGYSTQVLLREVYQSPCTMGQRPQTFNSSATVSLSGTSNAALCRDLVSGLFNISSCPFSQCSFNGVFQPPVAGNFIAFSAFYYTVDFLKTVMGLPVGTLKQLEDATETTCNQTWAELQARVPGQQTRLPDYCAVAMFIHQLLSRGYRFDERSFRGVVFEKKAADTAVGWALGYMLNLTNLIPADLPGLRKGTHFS
Experimental: FACS screening: Specific binding of candidate antibodies to endogenously expressed ENTPD2 was assessed by flow cytometry. Cells were rinsed thoroughly with 1×PBS and treated with Accutase (Millipore #SCR005) to lift from growth plates and resuspended at approximately 1×10^5 cells/90 μL in 1×FACS buffer (2% FBS+0.1% NaN3 in PBS). In a 96-well U-bottom plate, 10 μL of 10× antibody solution in FACS buffer was pre-seeded and 90 μL of cell suspension was added. Cell were incubated for 30 minutes at 4° C., washed 1× with cold PBS and resuspended in 100 μL of 1:500 secondary antibody 1×FACS buffer (Allophycocyanin conjugated F(ab′)2 goat anti-human IgG, Fcγ specific; Jackson Immunoresearch, Cat #109-136-098). After additional incubation for 15 min at 4° C., cells were washed twice with PBS and resuspended in 100 μL of 1×FACS buffer with 4 μg/mL propidium iodide (Life Technologies, Cat #P3566). Geometric mean fluorescence intensity was calculated on live single cells using FlowJo software.
ELISA screening on directly coated antigen: Maxisorp™ 384-well plates (Thermo Nunc) were coated with 2 μg/ml of recombinant ENTPD2 diluted in PBS. After blocking with 2% BSA (bovine serum albumin) in PBS for 1 hr at room temperature, washing plates 3× with TBST (0.05% Tween 20 in TBS, Sigma Cat #T9039), primary antibodies in TBST and 2% BSA were added in a serial dilution and incubated for 1 hr at room temperature. Plates were washed again and bound antibodies were detected by incubation with anti-hFc gamma conjugated to horseradish peroxidase (HRP; Jackson ImmunoResearch, Cat #115-035-098, diluted 1:5000 in 1×TBST+2% BSA) for 1 hr at room temperature followed by washing with TBST and afterwards addition of SureBlue Peroxidase substrate (KPL, #52-00-03) substrate. After 15 min, absorbance at 650 nm was recorded and analyzed in GraphPad Prism6.
(§1) Biacore™ Screening: Affinity was measured by determining the kinetic rate constants using surface plasmon resonance (SPR) on a Biacore™ T200 or T100 with the T200 sensitivity upgrade instrument (Biacore™, GE Healthcare). Antibodies were captured on CM5 sensor chips (Biacore™, GE Healthcare) prepared with a mouse anti-human IgG Fc antibody (ThermoFisher catalogue #05-4200) amine coupled to the surface. […] ENTPD2 analytes were allowed to associate for 180 s and dissociate for up to 1800 s depending on the off-rate of the antibody at a flow rate of 30 μL/min. The running buffer was PBS pH 7.2 (prepared from a Corning 10× stock, cat #46-013-CM)+0.05% Tween 20. Regeneration was accomplished with 30 s injections of 3 or 4 M MgCl2 to remove all the captured antibody and remaining complex from the surface, after which fresh antibody was captured. The raw data were analyzed using Biacore™ T200 Evaluation Software version 1.0 and fit to a 1:1 binding model, with all parameters set to fit globally except for RI, which was set to fit locally.
Antibody specificity for mAb1-mAb10 was confirmed. […] Antibodies mAb8, mAb9, and mAb10 show weak affinity to mouse ENTPD2. None of the selected antibodies bind to rat ENTPD2.

[2] = test system: cynomologus (cyno) ENTPD2; assay: Biacore SPR affinity to cyno ENTPD2 ECD; assay type: binding, cynomolgus monkey; conditions: 25° C.
Experimental: as §1

[3] = biological target: T2, recombinant human ENTPD2 (residues 29-462) (Homo sapiens, UniProt Q9Y5L3); assay: Biochemical human ENTPD2 functional assay (Transcreener ADP2 TR-FRET); conditions: FIG. 15
T2 construct: residues 29-462 of human or cyno ENTPD2 were cloned into expression vector; GP67 signal peptide (N); made in house; host or cells: High Five (Trichoplusia ni) insect cells, baculovirus
T2 sequence (Q9Y5L3 29-462): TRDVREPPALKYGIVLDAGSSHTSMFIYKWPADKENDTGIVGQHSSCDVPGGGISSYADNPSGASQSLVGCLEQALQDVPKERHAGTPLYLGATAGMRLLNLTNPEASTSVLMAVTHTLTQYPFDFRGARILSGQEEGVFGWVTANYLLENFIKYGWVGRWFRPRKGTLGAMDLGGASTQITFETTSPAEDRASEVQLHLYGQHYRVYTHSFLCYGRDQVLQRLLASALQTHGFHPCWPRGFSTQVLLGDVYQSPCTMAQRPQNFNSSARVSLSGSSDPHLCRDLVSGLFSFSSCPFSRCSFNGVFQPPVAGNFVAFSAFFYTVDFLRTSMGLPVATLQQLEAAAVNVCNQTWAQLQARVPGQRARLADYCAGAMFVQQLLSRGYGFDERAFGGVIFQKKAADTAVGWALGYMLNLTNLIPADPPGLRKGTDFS

human ENTPD2 = biological target: T3, human ENTPD2 (Homo sapiens, UniProt Q9Y5L3); assay: Biacore SPR affinity to human ENTPD2 ECD; assay type: binding; conditions: 25° C.
T3 construct: residues 29-462 of human or cyno ENTPD2 were cloned into expression vector; GP67 signal peptide (N); made in house; host or cells: High Five (Trichoplusia ni) insect cells, baculovirus
T3 sequence (Q9Y5L3 29-462): T2 sequence (Q9Y5L3 29-462)
Experimental: as §1

B1: mAb1: anti-human ENTPD2 antibody generated by humanization of mAb17 (antibody)
heavy: EVQLVQSGAEVKKPGESLKISCKASGYTFTDYNMDWVRQMPGKGLEWMGDINPKYDISTYNQQFKGQVTISADKSIRTAYLQWSSLKASDTAMYYCARRGFFLYYGINYYYFDVWGQGTLVTVSSASTKGPSVFPLAPSSKSTSGGTAALGCLVKDYFPEPVTVSWNSGALTSGVHTFPAVLQSSGLYSLSSVVTVPSSSLGTQTYICNVNHKPSNTKVDKRV[human IgG1 Fc skipped]
light: DIQLTQSPSSLSASVGDRVTITCSASSSVSYIHWFQQKPGKAPKLLIYSTSNLASGVPSRFSGSGSGTFFTLTISSLQPEDFATYFCHQWSSYPWTFGQGTKVEIKRTVAAPSVFIFPPSDEQLKSGTASVVCLLNNFYPREAKVQWKVDNALQSGNSQESVTEQDSKDSTYSLSSTLTLSKADYEKHKVYACEVTHQGLSSPVTKSFNRGEC
ΔT/ΔC value ([1]; 0.1 mg/kg i.v. day 1, in combination with anti-PD-1 Ab (fixed dose of 10 mg/kg)): 33.4%
ΔT/ΔC value ([1]; 1 mg/kg i.v. day 1, in combination with anti-PD-1 Ab (fixed dose of 10 mg/kg)): 35.7%
ΔT/ΔC value ([1]; 10 mg/kg i.v. day 1, in combination with anti-PD-1 Ab (fixed dose of 10 mg/kg)): 18.4%
anti-tumor efficacy as single agents ([1]; i.v. on day 1, single agent): No significant anti-tumor efficacy
Mouse ENTPD2 BIACore KD (mouse ENTPD2): No binding
Cyno ENTPD2 ka [2]: 360000 M⁻¹ s⁻¹
Cyno ENTPD2 kd [2]: 0.0012 s⁻¹
inhibition of the catalytic activity of the recombinant human ENTPD2 [3]: potently inhibit
Human ENTPD2 ka (human ENTPD2): 110000 M⁻¹ s⁻¹
Human ENTPD2 kd (human ENTPD2): 0.00019 s⁻¹
